Assay results from the supplement of paper PMC10369915.
The list shows a part of the results. No stated cut-off is given here; in the data, active = 3.2 or more and inactive = the rest. Only a few entries rise above the background.

target: SHP2 C-SH2 domain E139D; experiment: enrichment score (SH2-bound / input frequency) (ratio); bacterial display of known human phosphotyrosine sites (pTyr-Var adds point mutants) read by sequencing; higher = stronger binding; tyrosines were phosphorylated by kinases first; settings: peptide library: pTyr-Var
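Further: displayed peptides selected on beads carrying the immobilized SH2 domain, with library peptides lacking any tyrosine serving as negative controls.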

Enrichment score, inactive:
QTEAEYRFIFM [PTPN11_Y511_Q510E_YF] 0.498, QTEAPYRFIYM [PTPN11_Y511_Q510P] 0.651, QTEAPYRFIFM [PTPN11_Y511_Q510P_YF] 0.473, QTEAQYRFIFM [PTPN11_Y511_YF] 0.557, QNTGVYYDLYG [PTPN11_Y62_D61V] 1.34, QNTGVYFDLFG [PTPN11_Y62_D61V_YF] 1.6, QNTADYYDLYG [PTPN11_Y62_G60A] 1.03, QNTADYFDLFG [PTPN11_Y62_G60A_YF] 1.03, QNTVDYFDLFG [PTPN11_Y62_G60V_YF] 1.08, QNAGDYFDLFG [PTPN11_Y62_T59A_YF] 0.653, QNTGDDYDLYG [PTPN11_Y62_Y62D] 0.544, QNTGDDFDLFG [PTPN11_Y62_Y62D_YF] 0.763, QNTGDYFDLFG [PTPN11_Y62_YF] 1.05, NTGGYYDLYGG [PTPN11_Y63_D61G] 0.912, NTGNYYDLYGG [PTPN11_Y63_D61N] 0.839, NTGYYYDLYGG [PTPN11_Y63_D61Y] 1.12, KTGDFYDLFGG [PTPN11_Y63_N58K_YF] 1.19, NTGDDYDLYGG [PTPN11_Y63_Y62D] 0.784

target: SHP2 C-SH2 domain wild-type; experiment: as above; settings: peptide library: pTyr-Var

Enrichment score, inactive:
QTEAEYRFIFM [PTPN11_Y511_Q510E_YF] 0.498, QTEAPYRFIYM [PTPN11_Y511_Q510P] 0.604, QTEAPYRFIFM [PTPN11_Y511_Q510P_YF] 0.621, QTEAQYRFIFM [PTPN11_Y511_YF] 0.848, QNTGVYYDLYG [PTPN11_Y62_D61V] 0.968, QNTGVYFDLFG [PTPN11_Y62_D61V_YF] 1.82, QNTADYYDLYG [PTPN11_Y62_G60A] 0.895, QNTADYFDLFG [PTPN11_Y62_G60A_YF] 0.934, QNTVDYFDLFG [PTPN11_Y62_G60V_YF] 0.93, QNAGDYFDLFG [PTPN11_Y62_T59A_YF] 0.688, QNTGDDYDLYG [PTPN11_Y62_Y62D] 0.624, QNTGDDFDLFG [PTPN11_Y62_Y62D_YF] 0.73, QNTGDYFDLFG [PTPN11_Y62_YF] 1.03, NTGGYYDLYGG [PTPN11_Y63_D61G] 1.13, NTGNYYDLYGG [PTPN11_Y63_D61N] 0.695, NTGYYYDLYGG [PTPN11_Y63_D61Y] 1.77, KTGDFYDLFGG [PTPN11_Y63_N58K_YF] 0.791, NTGDDYDLYGG [PTPN11_Y63_Y62D] 0.609

target: SHP2 N-SH2 domain L43F; experiment: as above; settings: peptide library: pTyr-Var

Enrichment score, inactive:
QTEAEYRFIFM [PTPN11_Y511_Q510E_YF] 0.561, QTEAPYRFIYM [PTPN11_Y511_Q510P] 0.607, QTEAPYRFIFM [PTPN11_Y511_Q510P_YF] 0.55, QTEAQYRFIFM [PTPN11_Y511_YF] 0.618, QNTGVYYDLYG [PTPN11_Y62_D61V] 0.988, QNTGVYFDLFG [PTPN11_Y62_D61V_YF] 1.92, QNTADYYDLYG [PTPN11_Y62_G60A] 0.696, QNTADYFDLFG [PTPN11_Y62_G60A_YF] 1.23, QNTVDYFDLFG [PTPN11_Y62_G60V_YF] 1.15, QNAGDYFDLFG [PTPN11_Y62_T59A_YF] 1.21, QNTGDDYDLYG [PTPN11_Y62_Y62D] 0.498, QNTGDDFDLFG [PTPN11_Y62_Y62D_YF] 0.665, QNTGDYFDLFG [PTPN11_Y62_YF] 0.998, NTGGYYDLYGG [PTPN11_Y63_D61G] 0.986, NTGNYYDLYGG [PTPN11_Y63_D61N] 0.635, NTGYYYDLYGG [PTPN11_Y63_D61Y] 1.18, KTGDFYDLFGG [PTPN11_Y63_N58K_YF] 0.981, NTGDDYDLYGG [PTPN11_Y63_Y62D] 0.651

target: SHP2 N-SH2 domain T42A; experiment: as above; settings: peptide library: pTyr-Var

Enrichment score, inactive:
QTEAEYRFIFM [PTPN11_Y511_Q510E_YF] 0.516, QTEAPYRFIYM [PTPN11_Y511_Q510P] 0.429, QTEAPYRFIFM [PTPN11_Y511_Q510P_YF] 0.622, QTEAQYRFIFM [PTPN11_Y511_YF] 0.547, QNTGVYYDLYG [PTPN11_Y62_D61V] 1.04, QNTGVYFDLFG [PTPN11_Y62_D61V_YF] 1.37, QNTADYYDLYG [PTPN11_Y62_G60A] 0.707, QNTADYFDLFG [PTPN11_Y62_G60A_YF] 0.873, QNTVDYFDLFG [PTPN11_Y62_G60V_YF] 0.913, QNAGDYFDLFG [PTPN11_Y62_T59A_YF] 1.28, QNTGDDYDLYG [PTPN11_Y62_Y62D] 0.478, QNTGDDFDLFG [PTPN11_Y62_Y62D_YF] 0.636, QNTGDYFDLFG [PTPN11_Y62_YF] 0.872, NTGGYYDLYGG [PTPN11_Y63_D61G] 1.1, NTGNYYDLYGG [PTPN11_Y63_D61N] 0.62, NTGYYYDLYGG [PTPN11_Y63_D61Y] 1.13, KTGDFYDLFGG [PTPN11_Y63_N58K_YF] 0.922, NTGDDYDLYGG [PTPN11_Y63_Y62D] 0.597

target: SHP2 N-SH2 domain T52S; experiment: as above; settings: peptide library: pTyr-Var

Enrichment score, inactive:
QTEAEYRFIFM [PTPN11_Y511_Q510E_YF] 0.45, QTEAPYRFIYM [PTPN11_Y511_Q510P] 0.592, QTEAPYRFIFM [PTPN11_Y511_Q510P_YF] 0.856, QTEAQYRFIFM [PTPN11_Y511_YF] 0.569, QNTGVYYDLYG [PTPN11_Y62_D61V] 1.07, QNTGVYFDLFG [PTPN11_Y62_D61V_YF] 1.41, QNTADYYDLYG [PTPN11_Y62_G60A] 0.785, QNTADYFDLFG [PTPN11_Y62_G60A_YF] 1.1, QNTVDYFDLFG [PTPN11_Y62_G60V_YF] 1.21, QNAGDYFDLFG [PTPN11_Y62_T59A_YF] 0.695, QNTGDDYDLYG [PTPN11_Y62_Y62D] 0.95, QNTGDDFDLFG [PTPN11_Y62_Y62D_YF] 0.523, QNTGDYFDLFG [PTPN11_Y62_YF] 0.9, NTGGYYDLYGG [PTPN11_Y63_D61G] 1.14, NTGNYYDLYGG [PTPN11_Y63_D61N] 0.73, NTGYYYDLYGG [PTPN11_Y63_D61Y] 1.2, KTGDFYDLFGG [PTPN11_Y63_N58K_YF] 1.14, NTGDDYDLYGG [PTPN11_Y63_Y62D] 0.716

target: SHP2 N-SH2 domain wild-type; experiment: as above; settings: peptide library: pTyr-Var

Enrichment score, inactive:
QTEAEYRFIFM [PTPN11_Y511_Q510E_YF] 0.854, QTEAPYRFIYM [PTPN11_Y511_Q510P] 0.577, QTEAPYRFIFM [PTPN11_Y511_Q510P_YF] 0.69, QTEAQYRFIFM [PTPN11_Y511_YF] 0.625, QNTGVYYDLYG [PTPN11_Y62_D61V] 0.972, QNTGVYFDLFG [PTPN11_Y62_D61V_YF] 1.44, QNTADYYDLYG [PTPN11_Y62_G60A] 0.809, QNTADYFDLFG [PTPN11_Y62_G60A_YF] 1.24, QNTVDYFDLFG [PTPN11_Y62_G60V_YF] 1.05, QNAGDYFDLFG [PTPN11_Y62_T59A_YF] 1.05, QNTGDDYDLYG [PTPN11_Y62_Y62D] 0.5, QNTGDDFDLFG [PTPN11_Y62_Y62D_YF] 0.838, QNTGDYFDLFG [PTPN11_Y62_YF] 1.09, NTGGYYDLYGG [PTPN11_Y63_D61G] 1.19, NTGNYYDLYGG [PTPN11_Y63_D61N] 0.864, NTGYYYDLYGG [PTPN11_Y63_D61Y] 1.05, KTGDFYDLFGG [PTPN11_Y63_N58K_YF] 1.11, NTGDDYDLYGG [PTPN11_Y63_Y62D] 0.822
